Consider 34 variants from the RNAGym collection of RNA variant scans (doi:10.1093/nar/gkz1192).

The source gives no read counts; variants with many changes may rest on few reads.

B1: CPEB3 Ribozyme (parent)
chain: UAACAGGGGGCCACAGCAGAAGCGUUCACGUCGCAGCCCCUGUCAGAUUCUGGUGAAUCUGCGAAUUCUGCUGUAUAUCUC

Variants of B1 are the subject of this data set. The data set is described as follows: self-cleavage, relative activity (ratio to wild type); higher = more cleavage; in vitro, sequencing. The method in brief: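 Libraries of CPEB3 self-cleaving ribozyme mutants came from rounds of error-prone PCR and carried barcodes, which DNA sequencing matched to variants. In vitro transcription used T7 RNA polymerase at 37°C for 5 hours, with a further 15 min in DNase I before EDTA stopped the reaction; the ribozymes cleaved during both steps. The RNA was reverse transcribed with template switching and sequenced on Illumina. Relative activity is the cleaved/total read fraction of a variant divided by that of the unmutated ribozyme, averaged over three batches with at least 5 reads.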
As to UAACAGGGGGCCACAGCAGAGGCGUUCACGUCGCAGCCCCUGUCAUAUUCCGGUGGAUCUGCGAAUUCUGCUGUAUAUCUC, the self-cleavage was 0.17. As for UAACAGGGGGCCACAGCAGAGGCCUUCACGUCGCAGCCCCUGUCAGAUUCUGGUGAAUCAGCGAAUUCUGCUGUAUAUCCC, the figure is 0.07; as for UAACAGGGGGCCACAGCAGAGGCGUUCACGUCGCAGCCCCUGUCAGAUUCUGGUGAAUCUUCCAAUUCUGCCGUAUAUCUC, 0.21. As for UAACAGGGGGCCACAGCAGAGGCGUUCACGUCGCAGCCCCUGUCAGAUUCUGUUGAAUCUGCGAAUUCUGCUGUAUGUCUC, the figure is 0.61. Regarding UAACAGGGGGCCACAGCAGAGGCAUUCACGUCGCAGCCCCUGUCAGAUUCUGGUGAAUCUGCGAAUUCUGCUGAAUAUCUC, the self-cleavage worked out at 0.32.

Turning to UAACAGGGGGCCACAGCAGAGGCGUUCACGUCGCAGCCCCUGUCAGAUUCUGGUGAAUCUGCUCAUUCUGCUGUAUUUCUC, the self-cleavage was found to be 0.09. With UAACAGGGGGCCACAGCAGAGGCGUUCACAUCGCAGCCCCUGACAGAUUCUGGUGAAUCUGCGAAUUCUGCUGUAUAUCUC the figure was 0.26; with UAACAGGGGGCCACAGCAGAGGCGAUCACGUCGCAGCCCUUGCCACAUUCUGGUGAAUCUGCGAAUUCUGCUGUAUAUCUC, 0.16; with UAACAGGGGGCCACAGCAGAGGCGUUCACGUCUCAGCACCCGUCAGAUUCUGGUGAAACUGCGGAUUGUGCUGUAUAUCUC, 0.07. With UAACAGGGGGCCACAGCAGAGGCGUUCACGUCGCAGCCCCUAUCAGCUUCUGGUGAAUCUGCGGAUUCUGCUGUACAUCUC the figure was 0.07; with UAACAGGGGGCCACAGCAGAGGCGUUCACGUCGCAACCCUUGUCAGAUUCUGGUGAAUCUGCGAAUUCUGCUGUAUAUCUC, 0.1; with UAACAGGGGGCCACAGCAGAGGCGUUCACGUCACAGCCCCUGUCAGAUUCUAGUGAAUCUGCGAAUUCUGCUGUAAAUCUC, 0.1. Take UAACAGGGGGCCACAGCAGAGGCGUUCACGUCGCAGCCCCUGUCAGAUUCUGGUAGAUCUGCGAAUUCUGCUGUAUAUCUC: the self-cleavage was 0.36. With UAACAGGGGGCCACAGCAGAGGCGUUCACGUCGCAGCCCCUGUCAGAUUCUUGUGAGUCUGCGAAUUCUGCUGUAUAUCUC the figure was 0.53. As for UAACAGGGGGCCACAGCAGAGGCGUUCACAUCCCAGCCCCUGUCAGAUUCUGGUGAAUCUGCGAAUUCUGCUGUAUAUCCC, the figure is 0.1; as for UAACAGGGGGCCACAGCAGAGGCGUUCACGUCGCAACCCCUGUCAGAUUCUGGUGAAUCUGCGAAUUCAGCUGUAUAUCUC, 0.08; as for UAACAGGGGGCCACAGCAGAGGCGUUCACGUCGCAACCCCUGUCAGAUUCUGGUGAAUCUGCGAAUUCCGCUGUAUAUCUC, 0.13.

Consider UAACAGGGGGCCACAGCAGAGGCGUUCACGUCGCAGCCCCUUUCAGAUUCUGAUGAAUCUGCGAAUUCUGCUGUAUAUCUC, for which the self-cleavage amounted to 0.26. In the case of UAACAGGGGGCCACAGCAGAGGCGUUCACCUCGCAGCCCCCGUCAGAUUCUGGUGAAUCUGCGAAUUCAGCUGUAUAUCUC, the self-cleavage is 0.19.

Consider UAACAGGGGGCCACAGCAGAGGCGUUCACGUCGCAGCCCCUAUCAGGUUCUGGUGAAUCUGCGAAUUCUGCUGUAUAUCUC, for which the self-cleavage was 0.07.

In the case of UAACAGGGGGCCACAGCAGAGGCGUUCACUUCGCAGCCCCUGUCAGAUUCUGGUGAAUCUGCGAAUUCUGCUGUAUGUCUC, the self-cleavage turned out to be 0.18. Take UAACAGGGGGCCACAGCAGAGGCGUUCACGUCCCAGCCCCUGCCAGAUUCUGGUGAAUCUGCGAAUCCUGCAGUAUAUCUC: the self-cleavage stood at 0.05.

As to UAACAGGGGGCCACAGCAGAGGCGUUCACUUCGCAGCUCCUGUCAGACUCUGGUGAAUCUGCGAAUUCUGCUGUAUAUCUC, the self-cleavage worked out at 0.08. As for UAACAGGGGGCCACAGCAGAGGCGUUCACGUCGCACCCCCAGUAGGAUUCUGGUGAAUCUGCGAAUUCUGCUGUAUAUCUC, the figure is 0.11; as for UAACAGGGGGCCACAGCAGAGGCGUUCACGUCUCAGCCCCUGUCAGAUUCUGGUGUACCCGCGACUUCUGCUGUAUAUCUC, 0.05; as for UAACAGGGGGCCACAGCAGAGGCGUUCACGUCACAGCCCCUGUCAGAUUCUGGUGAAUCUGCGAAUUCUGCUGUAAAUCUC, 0.14. With UAACAGGGGGCCACAGCAGAGGCGUUCACAUCGCAGCCCCUGUCAGAUUCCGGUGAAUCUGCGAAUUCUGCUGUAUAUCUC the figure was 0.1; with UAACAGGGGGCCACAGCAGAGGCGUUCACAUCGCAGCCCCUGUCAGAUUCUGGUGUAUCUGCGAACUCUGCUGUAUAUCUC, 0.21; with UAACAGGGGGCCACAGCAGAGGCGUUCACGUCGCAGCCCCUGUCAGAUUCUGGUGAAUCUACGAGUUCUGCUGUAUUUCUC, 0.12. As for UAACAGGGGGCCACAGCAGAGGCGUUCACGUCACAGCCCCUGUCAGAUUCUGGUGAAUCUGCGAAGUCUGCUGUAUAUCUC, the figure is 0.08; as for UAACAGGGGGCCACAGCAGAGGCCUUCACGUCGCACCCCCUGUCAGAUUCUGGUGAAUCUGCGAAUUCUGCUGUAUAUCUC, 0.16.

For the variant UAACAGGGGGCCACAGCAGAGGCGUUCACGUCGCAGCCCCUGUCAGAUUCUGUUGAUUCUGCGAAUCCUGCAGUAUAUCUC, the self-cleavage was 0.1. With UAACAGGGGGCCACAGCAGAGGCGUUCACGUCGCAGCCCCUAUCAGAUUCUGGUGAAUCUGCGAAUUCUGCUGUAUACCUC the figure was 0.18; with UAACAGGGGGCCACAGCAGAGGCGUUCACGUCGCAGCCCCUGUCAUAUCCUGGUGAAUCUGCGAAUUCUGCUGUAUAUCUC, 0.19.
